Out of some 150,000 compounds screened, about 540 (0.36%) showed an effect of 50% or more. This is one part of the list.
These compounds were tested on Plasmodium falciparum (assay: Primary screen in NF54 nanoGlo assay, in single point, at 2uM, 72h; a lower Z score goes with more inhibition). Details: timepoint 72 hour.
Assay type: functional, Erythrocyte

| SMILES | % Inhibition | Z score |
| --- | --- | --- |
| O=C(NCc1ccccn1)c1cc(C(F)(F)F)cc(C(=O)Nc2ccccc2)n1 | 39% | -1.13 |
| COCC1(CNS(=O)(=O)N2CCC(C)(C)CC2)CCCC1 | -10% | 1.8 |
| O=C(c1cc2c(s1)CCOC2)N1CCC2(CCC2)C1 | -13% | 1.47 |
| O=C1C2C(Cc3ccc(O)cc3)NC3(C(=O)Nc4ccccc43)C2C(=O)N1c1cccc(Cl)c1 (stereo not given) | -4% | 0.57 |
| C=CC[C@H](C)NC(=O)Nc1ccnn1C | -3% | 0.45 |
| Cc1noc(C)c1CN(C)C(=O)Nc1ccc2c(cnn2C)c1 | -10% | 0.94 |
| CN(C)CCNC(=O)c1ccc2c(c1)nc1n2CCCC1 | 6% | -1.1 |
| CC(=O)Nc1ccc(C)cc1-c1nc2ccccc2n(CC(=O)N2CCc3ccccc32)c1=O | 4% | -0.62 |
| COc1cc(-c2nc3cnccn3c2NC2CCCCC2)ccc1O | -7% | 0.85 |
| CN(Cc1ccccc1)C(=O)C(C)(C)C | 1% | -0.06 |
| O=C1NCCn2cnc(C(F)(F)F)c21 | -4% | 0.41 |
| Cc1cc(CN(C)Cc2cc(CN(C)C)cs2)on1 | -2% | 0.32 |
| Cn1nc(C(C)(C)C)c2[nH]c([C@H]3CCOC(C)(C)C3)nc21 | -2% | 0.31 |
| O=C(Nc1ccncc1)c1ccc2ccccc2n1 | 37% | -1.72 |
| COc1ncc(NS(=O)(=O)c2ccc(C)s2)cn1 | -11% | 2.12 |
| O=C(CC1CCCN1)NC(c1ccc(F)cc1)C1CCCC1 (stereo not given) | -4% | 0.66 |
| Cc1nc(C(=O)NCCc2c[nH]cn2)c(-c2ccc(F)cc2)s1 | -10% | 1.82 |
| c1ccc(-c2nsc(N3CCC(c4nn[nH]n4)CC3)n2)cc1 | -17% | 3.16 |
| CC(=O)N1CCOc2ccc(CCC(=O)NCCC(C)C)cc2C1 | -13% | 1.88 |
| COc1nc(-c2cccc(C(=O)NCCCN3CCOCC3)c2)nn1C | -5% | 0.93 |
| CC(=O)Nc1ccc2nc(NCc3cc(C#N)n(C)c3C)sc2c1 | 4% | -0.45 |
| CC(C)n1ncc(C(=O)N(CCc2ccccc2)c2ccccc2)c1N | -7% | 1.27 |
| CC1CCN(C(=O)Nc2cnn(C(C)(C)C)c2)C(c2ccco2)C1 (stereo not given) | -10% | 1.7 |
| COc1nc2c(cc1CNC(=O)[C@@H]1CCCN1C)C(=O)N(C1CCCC1)C2 | -10% | 1.46 |
| O=C(NC[C@H]1CC(=O)N(C2CC2)C1)c1cccc2ccnn12 | -6% | 0.98 |
| Cc1ccc(-c2ccnc3c(C(=O)NCCc4ccccn4)cnn23)cc1C | -16% | 2.38 |
| CNC(=O)[C@H](C)Oc1cccc(OC)c1 | -16% | 1.49 |
| COc1cccc(CN2CC=C(C(=O)N3CCN(c4ccccc4)CC3)CC2)c1 | -11% | 1.75 |

| SMILES | % Inhibition | Z score |
| --- | --- | --- |
| Cc1noc(C2CN(C(=O)C3(O)CCCC3)C2)n1 | 1% | -0.25 |
| COc1ccc(C)cc1NC(=O)Cn1nc(N(C)C)c2ccccc2c1=O | 2% | -0.33 |
| COc1ccc(CN(C(=O)c2scc(C)c2Cl)c2ccncc2)cc1 | 1% | -0.15 |
| CC(C)CCN(Cc1c(-c2ccccc2)noc1N1CCCCC1)C(=O)c1ccccc1F | -15% | 1.98 |
| CC[C@@](C)(CC(=O)O)NC(=O)CCc1ccsc1 | 2% | -0.23 |
| O=C(Nn1cnnc1)c1cccc2c(=O)c3ccccc3[nH]c12 | -9% | 1.2 |
| OCCN1CCN(CCCc2cccc3ccccc23)CC1 | -5% | 0.73 |
| C[C@H](Nc1ncc(F)c(N(C)C)n1)c1ccc2c(c1)OCCO2 | -5% | 0.69 |
| Cc1nccn1CCC(=O)N1C[C@H]2CC[C@@H](C1)N(Cc1ccccn1)C2=O | -12% | 2.27 |
| O=C(NCc1ccc(-n2cncn2)nc1)c1ccccc1F | -9% | 1.27 |
| Cc1nc(C2CC2)oc1C(=O)N1CCn2c(cc3ccc(Cl)cc32)C1 | 14% | -1.78 |
| Cn1cnnc1[C@H](CO)Nc1ncc(C(F)(F)F)cc1Cl | 1% | -0.08 |
| O=C(COc1ccc(Cl)cc1)Nc1ccc2nc3n(c(=O)c2c1)CCCC3 | 6% | -1.1 |
| Cc1c(-c2ccc(Cl)cc2)nnn1Cc1nnc(C(C)C)s1 | -11% | 2 |
| CC(C)CC[C@@]1(C2CC2)NC(=O)N(Cc2noc(C3CC3)n2)C1=O | 5% | -0.7 |
| CS(=O)(=O)[C@H]1CCN(C(=O)c2cnc3ccccc3n2)C1 | -17% | 2.93 |
| C[C@H](NC(=O)Nc1ccc2c(c1)OC1(CCCCC1)O2)c1ccon1 | 16% | -1.84 |
| Cc1cnc(C(C)NC(=O)NC(C)Cc2ccsc2)s1 (stereo not given) | 0% | -0.02 |
| COc1ccc(NC(=O)N2CCN(C3=Nc4ccccc4Oc4c(OC)cccc43)C[C@@H]2C)cc1 | 4% | -0.73 |
| C[C@@H](c1ccncc1)N(C)Cc1cc(-c2ncccn2)ccc1OCC(=O)O | -2% | 0.32 |
| O=C(Nc1ccc(F)cc1F)c1ccc(-c2noc(C3CCCC3)n2)cc1 | -6% | 0.6 |
| CCc1ccc(-c2nccn2CCN2CCOCC2)o1 | 0% | -0.04 |
| COc1ccc(-c2cnc(C(=O)Nc3nc4ccccc4s3)o2)cc1 | -7% | 0.93 |
| O=C1[C@@H]2[C@H](Cc3ccc(O)cc3)N[C@]3(C(=O)Nc4ccccc43)[C@@H]2C(=O)N1c1ccc(Cl)cc1 | 2% | -0.45 |
| COCCn1c(C[C@H]2CCN(C(=O)c3cc(Cl)ccc3OC)C2)nc2cccnc21 | -8% | 0.74 |
| CCOc1ccc(N2C[C@@H](C(=O)NCc3ccc(-c4csc(C)n4)o3)CC2=O)cc1 | -9% | 1.3 |
| Cc1nc2n(c(=O)c1CCN1CCC(C(=O)c3ccc(F)cc3O)CC1)CCCC2 | -4% | 0.51 |

Source: ChEMBL document CHEMBL4888484, “Replenishing the malaria drug discovery pipeline: Screening and hit evaluation of the MMV Hit Generation Library 1 (HGL1) against asexual blood stage Plasmodium falciparum ,using a nano luciferase reporter read-out” (2022)
